# Measured values taken from paper PMC9911399, “Two distinct binding modes provide the RNA-binding protein RbFox with extraordinary sequence specificity”.
# Positions count from the first letter of the chain named. The list shows a part of the results.
# T1: RBFOX1 RRM RbFoxmut (Fox-RRM*) (Homo sapiens, UniProt Q9NWB1 109-208, R118D;E147R;N151S;E152T)
# T1 sequence: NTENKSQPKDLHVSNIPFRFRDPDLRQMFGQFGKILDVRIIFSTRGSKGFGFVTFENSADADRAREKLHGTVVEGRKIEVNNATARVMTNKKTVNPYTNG
# B1: ACUCCUA (DNA:RNA)
# RNA: GGGAGACCGGAAUUCAGAUUGUCCACUCCUAUUAAAUCCCGUCGUAGCCACCA
# DNA 1: CAATCTGAATTCCGGTCTCCC
# DNA 2: TGGTGGCTACGACGGGATT
# B2: AGACACG (DNA:RNA)
# RNA: B1 RNA with C26G, U27A, C29A, U30C, A31G
# DNA 1: CAATCTGAATTCCGGTCTCCC
# DNA 2: TGGTGGCTACGACGGGATT
# B3: GCUCCAC (DNA:RNA)
# RNA: B1 RNA with A25G, U30A, A31C
# DNA 1: CAATCTGAATTCCGGTCTCCC
# DNA 2: TGGTGGCTACGACGGGATT
# B4: CUAGAUA (DNA:RNA)
# RNA: B1 RNA with A25C, C26U, U27A, C28G, C29A
# DNA 1: CAATCTGAATTCCGGTCTCCC
# DNA 2: TGGTGGCTACGACGGGATT
# B5: UUCGUCA (DNA:RNA)
# RNA: B1 RNA with A25U, C26U, U27C, C28G, C29U, U30C
# DNA 1: CAATCTGAATTCCGGTCTCCC
# DNA 2: TGGTGGCTACGACGGGATT
# B6: UGGCGCC (DNA:RNA)
# RNA: B1 RNA with A25U, C26G, U27G, C29G, U30C, A31C
# DNA 1: CAATCTGAATTCCGGTCTCCC
# DNA 2: TGGTGGCTACGACGGGATT
# B7: CAGCUGA (DNA:RNA)
# RNA: B1 RNA with A25C, C26A, U27G, C29U, U30G
# DNA 1: CAATCTGAATTCCGGTCTCCC
# DNA 2: TGGTGGCTACGACGGGATT
# B8: AUAGAAG (DNA:RNA)
# RNA: B1 RNA with C26U, U27A, C28G, C29A, U30A, A31G
# DNA 1: CAATCTGAATTCCGGTCTCCC
# DNA 2: TGGTGGCTACGACGGGATT
# B9: GCUGUAU (DNA:RNA)
# RNA: B1 RNA with A25G, C28G, C29U, U30A, A31U
# DNA 1: CAATCTGAATTCCGGTCTCCC
# DNA 2: TGGTGGCTACGACGGGATT
# B10: UGGUGUG (DNA:RNA)
# RNA: B1 RNA with A25U, C26G, U27G, C28U, C29G, A31G
# DNA 1: CAATCTGAATTCCGGTCTCCC
# DNA 2: TGGTGGCTACGACGGGATT
# B11: CCCAGAU (DNA:RNA)
# RNA: B1 RNA with A25C, U27C, C28A, C29G, U30A, A31U
# DNA 1: CAATCTGAATTCCGGTCTCCC
# DNA 2: TGGTGGCTACGACGGGATT
# B12: CCUUGUC (DNA:RNA)
# RNA: B1 RNA with A25C, C28U, C29G, A31C
# DNA 1: CAATCTGAATTCCGGTCTCCC
# DNA 2: TGGTGGCTACGACGGGATT
# B13: CUUCAUC (DNA:RNA)
# RNA: B1 RNA with A25C, C26U, C29A, A31C
# DNA 1: CAATCTGAATTCCGGTCTCCC
# DNA 2: TGGTGGCTACGACGGGATT
# B14: AAGAGUA (DNA:RNA)
# RNA: B1 RNA with C26A, U27G, C28A, C29G
# DNA 1: CAATCTGAATTCCGGTCTCCC
# DNA 2: TGGTGGCTACGACGGGATT
# B15: AUGAGGA (DNA:RNA)
# RNA: B1 RNA with C26U, U27G, C28A, C29G, U30G
# DNA 1: CAATCTGAATTCCGGTCTCCC
# DNA 2: TGGTGGCTACGACGGGATT
# B16: GCCGCCG (DNA:RNA)
# RNA: B1 RNA with A25G, U27C, C28G, U30C, A31G
# DNA 1: CAATCTGAATTCCGGTCTCCC
# DNA 2: TGGTGGCTACGACGGGATT
# B17: ACGACUU (DNA:RNA)
# RNA: B1 RNA with U27G, C28A, A31U
# DNA 1: CAATCTGAATTCCGGTCTCCC
# DNA 2: TGGTGGCTACGACGGGATT
# B18: ACGGUUA (DNA:RNA)
# RNA: B1 RNA with U27G, C28G, C29U
# DNA 1: CAATCTGAATTCCGGTCTCCC
# DNA 2: TGGTGGCTACGACGGGATT
# B19: AUUCACC (DNA:RNA)
# RNA: B1 RNA with C26U, C29A, U30C, A31C
# DNA 1: CAATCTGAATTCCGGTCTCCC
# DNA 2: TGGTGGCTACGACGGGATT
# B20: AAACAGU (DNA:RNA)
# RNA: B1 RNA with C26A, U27A, C29A, U30G, A31U
# DNA 1: CAATCTGAATTCCGGTCTCCC
# DNA 2: TGGTGGCTACGACGGGATT
# B21: CACCUAC (DNA:RNA)
# RNA: B1 RNA with A25C, C26A, U27C, C29U, U30A, A31C
# DNA 1: CAATCTGAATTCCGGTCTCCC
# DNA 2: TGGTGGCTACGACGGGATT
# B22: CAUGGGG (DNA:RNA)
# RNA: B1 RNA with A25C, C26A, C28G, C29G, U30G, A31G
# DNA 1: CAATCTGAATTCCGGTCTCCC
# DNA 2: TGGTGGCTACGACGGGATT
# B23: GUGCUGC (DNA:RNA)
# RNA: B1 RNA with A25G, C26U, U27G, C29U, U30G, A31C
# DNA 1: CAATCTGAATTCCGGTCTCCC
# DNA 2: TGGTGGCTACGACGGGATT
# B24: AAUCUUU (DNA:RNA)
# RNA: B1 RNA with C26A, C29U, A31U
# DNA 1: CAATCTGAATTCCGGTCTCCC
# DNA 2: TGGTGGCTACGACGGGATT
# B25: CCAGCUA (DNA:RNA)
# RNA: B1 RNA with A25C, U27A, C28G
# DNA 1: CAATCTGAATTCCGGTCTCCC
# DNA 2: TGGTGGCTACGACGGGATT
# B26: AACACCG (DNA:RNA)
# RNA: B1 RNA with C26A, U27C, C28A, U30C, A31G
# DNA 1: CAATCTGAATTCCGGTCTCCC
# DNA 2: TGGTGGCTACGACGGGATT
# B27: GCUAGUU (DNA:RNA)
# RNA: B1 RNA with A25G, C28A, C29G, A31U
# DNA 1: CAATCTGAATTCCGGTCTCCC
# DNA 2: TGGTGGCTACGACGGGATT
# B28: UAGAGUC (DNA:RNA)
# RNA: B1 RNA with A25U, C26A, U27G, C28A, C29G, A31C
# DNA 1: CAATCTGAATTCCGGTCTCCC
# DNA 2: TGGTGGCTACGACGGGATT
# B29: CGCGGUA (DNA:RNA)
# RNA: B1 RNA with A25C, C26G, U27C, C28G, C29G
# DNA 1: CAATCTGAATTCCGGTCTCCC
# DNA 2: TGGTGGCTACGACGGGATT
# B30: AGCGUUA (DNA:RNA)
# RNA: B1 RNA with C26G, U27C, C28G, C29U
# DNA 1: CAATCTGAATTCCGGTCTCCC
# DNA 2: TGGTGGCTACGACGGGATT
# B31: UUCUCUG (DNA:RNA)
# RNA: B1 RNA with A25U, C26U, U27C, C28U, A31G
# DNA 1: CAATCTGAATTCCGGTCTCCC
# DNA 2: TGGTGGCTACGACGGGATT
# Target: T1, RBFOX1 RRM RbFoxmut (Fox-RRM*)
# Test: EMSA; HiTS-Eq, 1 nM pool, 10 min; buffer printed only for the single-RNA assays: 10 mM Tris pH 7.5, 150 mM NaCl, 3.4 mM EDTA, 0.001% NP-40, 30 C
# Settings: tags: His6 N-terminal (pET28a); label: 5' 32P
# Method in brief: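 Purified wild-type or mutant RbFox RRM at increasing concentrations was equilibrated with 1 nM of 5′-radiolabelled RNA carrying 7 randomized nucleotides for 10 min in 50 µL. Unbound RNA was separated by 8% native PAGE and sequenced. Relative association constants came from read-count changes of each RNA species compared with the control reaction, normalised to the cognate motif.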
row,Binder,binding signal
1,B1,0.0629 KA relative to UGCAUGU
2,B2,0.0776 KA relative to UGCAUGU
3,B3,0.0793 KA relative to UGCAUGU
4,B4,0.091 KA relative to UGCAUGU
5,B5,0.123 KA relative to UGCAUGU
6,B6,0.139 KA relative to UGCAUGU
7,B7,0.0845 KA relative to UGCAUGU
8,B8,0.142 KA relative to UGCAUGU
9,B9,0.131 KA relative to UGCAUGU
10,B10,0.498 KA relative to UGCAUGU
11,B11,0.0766 KA relative to UGCAUGU
12,B12,0.226 KA relative to UGCAUGU
13,B13,0.0532 KA relative to UGCAUGU
14,B14,0.15 KA relative to UGCAUGU
15,B15,0.0761 KA relative to UGCAUGU
16,B16,0.0891 KA relative to UGCAUGU

row,Binder,binding signal
1,B17,0.0809 KA relative to UGCAUGU
2,B18,0.128 KA relative to UGCAUGU
3,B19,0.0656 KA relative to UGCAUGU
4,B20,0.0544 KA relative to UGCAUGU
5,B21,0.123 KA relative to UGCAUGU
6,B22,0.0893 KA relative to UGCAUGU
7,B23,0.124 KA relative to UGCAUGU
8,B24,0.0586 KA relative to UGCAUGU
9,B25,0.108 KA relative to UGCAUGU
10,B26,0.112 KA relative to UGCAUGU
11,B27,0.114 KA relative to UGCAUGU
12,B28,0.0745 KA relative to UGCAUGU
13,B29,0.174 KA relative to UGCAUGU
14,B30,0.113 KA relative to UGCAUGU
15,B31,0.0908 KA relative to UGCAUGU
